The values below come from the supplement of paper PMC8512760.

Counter-ions that a name gives are not always drawn. Some of the results follow. Repeats are few or missing, and single values can be far off.
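Further: stably firefly luciferase-GFP labeled cells in 96-well plates, viability read as luciferase photon flux after d-luciferin addition, treated wells normalized to vehicle wells, single-dose high-throughput screen.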

In the test the test system is HCC-1143. Briefly: cell viability relative to vehicle (% of vehicle); basal-like triple-negative breast cancer lines; higher = less cytotoxic. The note with it: 10 µM; 72 h.
Take `CCC1=C[C@H]2CN3CCc4c([nH]c5ccccc45)[C@@](C(=O)OC)(C2)[C@@H]13` [Catharanthine]: the cell viability came out at 82.9. For `CCCN1CC(CSC)CC2c3cccc4[nH]cc(c34)CC21.CS(=O)(=O)O` (centres undefined) [Pergolide mesylate] the value was 96; for `Cn1c(COP(=O)(NCCBr)NCCBr)cnc1[N+](=O)[O-]`, 118; for `CC(C)NCC(O)c1ccccc1Cl.Cl` (centres undefined) [Clorprenaline HCL], 71. Under `CCCCCCCCCCCCCCCC[N+](C)(C)C.[Br-]` [Cetrimonium Bromide (CTAB)] stands 23.3; under `CC(C)N(CCNC(=O)CN1CCCC1=O)C(C)C` [Pramiracetam], 124. Under `OC(c1ccccc1)(c1ccccc1)C1CCNCC1` [Azacyclonol] stands 71.8; under `Cc1c(N)nc(C(CC(N)=O)NCC(N)C(N)=O)nc1C(=O)NC(C(=O)NC(C)C(O)C(C)C(=O)NC(C(=O)NCCc1nc(-c2nc(C(=O)NCCC[S+](C)C)cs2)cs1)C(C)O)C(O[C@@H]1O[C@@H](CO)[C@@H](O)[C@H](O)[C@@H]1O[C@H]1O[C@H](CO)[C@@H](O)[C@H](OC(N)=O)[C@@H]1O)c1cnc[nH]1` (some centres undefined) [Bleomycin Sulfate], 124; under `O.O=P1(N(CCCl)CCCl)NCCCO1` (centres undefined) [Cyclophosphamide monohydrate], 101. `CCCC1CC(=O)N(C(CC)C(N)=O)C1` (centres undefined) [Brivaracetam]: the cell viability came out at 85.6. For `C=CCN1CCC23c4c5ccc(O)c4OC2C(=O)CCC3(O)C1C5.Cl` (centres undefined) [Naloxone HCl] the value was 82.1; for `CN1C(=O)CCS(=O)(=O)C1c1ccc(Cl)cc1` (centres undefined) [Chlormezanone], 75.3; for `O=C(OC1C[N+]2(CCCOc3ccccc3)CCC1CC2)C(O)(c1cccs1)c1cccs1.[Br-]` (centres undefined) [Aclidinium Bromide], 87.8. For `NCCC(O)(P(=O)([O-])O)P(=O)([O-])O.[Na+].[Na+]` [Pamidronate Disodium], the cell viability worked out at 76.2.

`COc1cc2c(cc1OC)C13CCN4CC5=CCOC6CC(=O)N2C1C6C5CC43` (centres undefined) [Brucine] displayed a cell viability of 83.6. Compound `Cc1ccc(-n2nccn2)c(C(=O)N2CCN(c3nc4cc(Cl)ccc4o3)CCC2C)c1` (centres undefined) had a cell viability of 118.

Turning to `Br.COC(=O)C1=CCCN(C)C1` [Arecoline hydrobromide], the cell viability was determined as 79.5. In turn, `CCOC(=O)c1cncn1C(C)c1ccccc1.Cl` (centres undefined) [Etomidate hydrochloride] returned a cell viability of 101. Compound `CCNCC.O=S(=O)(O)c1cc(O)ccc1O` [Ethamsylate] displayed a cell viability of 69.8. Regarding `O=P1(NCCCl)OCCCN1CCCl` (centres undefined) [Ifosfamide], the cell viability was determined as 86.

In turn, `C#CC1(O)C=CC2C3CCC4=CC(=O)CCC4C3CCC21CC` (centres undefined) [Gestodene] showed a cell viability of 74.8. For `Cl.NCCc1c[nH]c2ccc(O)cc12` [Serotonin HCl] the value was 92.1. Under `CC12CCC3C(CC=C4CC(O)CCC43C)C1CCC2=O` (centres undefined) [Dehydroepiandrosterone (DHEA)] stands 94.2; under `CCOC(=O)c1cncn1C(C)c1ccccc1` (centres undefined) [Etomidate], 99.4. Under `CC(=O)Nc1cc([As](=O)(O)O)ccc1O` [Arsonic acid] stands 78.2; under `CCC1(c2cccc(O)c2)CCCCN(C)C1.Cl` (centres undefined) [Meptazinol HCl], 81.2. Compound `NCC1(CC(=O)O)CCCCC1` [Gabapentin] showed a cell viability of 78.2.

As for `C[N+]1(C)CCCC(OC(=O)C(O)(c2ccccc2)c2ccccc2)C1.[Br-]` (centres undefined) [Mepenzolate Bromide], the cell viability stood at 113.

As for `CCN(C)C(=O)Oc1cccc(C(C)N(C)C)c1` (centres undefined) [Rivastigmine], the cell viability stood at 89.7. For `C[C@]12CC[C@H]3[C@@H](CC[C@@]45O[C@@H]4C(O)=C(C#N)C[C@]35C)[C@@H]1CC[C@@H]2O` [Trilostane] the value was 125; for `NC(=O)CN1CC(O)CC1=O` (centres undefined) [Oxiracetam], 120; for `CN1[C@@H]2C[C@@H](O)C[C@H]1[C@@H]1O[C@@H]12` [Scopine], 111.

The compound `N/C(N)=N\N.Cl` [Aminoguanidine hydrochloride] showed a cell viability of 76.2. Under `C[C@]12COC(=O)C[C@@H]1CC[C@@H]1[C@@H]2CC[C@@]2(C)[C@H]1CC[C@]2(C)O` [Oxandrolone] stands 72.2.
